# Measured values: PMC4336329 (PLoS ONE, 2015)
# In all, about 310,000 compounds went through this assay and about 14,000 (4.5%) showed an effect of 50% or more. Effects have a minus sign here. Some of the results follow.
# Biological target: human ether-à-go-go-related gene (hERG) potassium channel (human, UniProt Q12809)
# Assay: primary screen, population patch clamp on CHO cells stably expressing hERG
# 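Note: peak tail current of the secondary pulse compared with the same well before compound.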
# Chain of human ether-à-go-go-related gene (hERG) potassium channel (Q12809 whole entry, looked up): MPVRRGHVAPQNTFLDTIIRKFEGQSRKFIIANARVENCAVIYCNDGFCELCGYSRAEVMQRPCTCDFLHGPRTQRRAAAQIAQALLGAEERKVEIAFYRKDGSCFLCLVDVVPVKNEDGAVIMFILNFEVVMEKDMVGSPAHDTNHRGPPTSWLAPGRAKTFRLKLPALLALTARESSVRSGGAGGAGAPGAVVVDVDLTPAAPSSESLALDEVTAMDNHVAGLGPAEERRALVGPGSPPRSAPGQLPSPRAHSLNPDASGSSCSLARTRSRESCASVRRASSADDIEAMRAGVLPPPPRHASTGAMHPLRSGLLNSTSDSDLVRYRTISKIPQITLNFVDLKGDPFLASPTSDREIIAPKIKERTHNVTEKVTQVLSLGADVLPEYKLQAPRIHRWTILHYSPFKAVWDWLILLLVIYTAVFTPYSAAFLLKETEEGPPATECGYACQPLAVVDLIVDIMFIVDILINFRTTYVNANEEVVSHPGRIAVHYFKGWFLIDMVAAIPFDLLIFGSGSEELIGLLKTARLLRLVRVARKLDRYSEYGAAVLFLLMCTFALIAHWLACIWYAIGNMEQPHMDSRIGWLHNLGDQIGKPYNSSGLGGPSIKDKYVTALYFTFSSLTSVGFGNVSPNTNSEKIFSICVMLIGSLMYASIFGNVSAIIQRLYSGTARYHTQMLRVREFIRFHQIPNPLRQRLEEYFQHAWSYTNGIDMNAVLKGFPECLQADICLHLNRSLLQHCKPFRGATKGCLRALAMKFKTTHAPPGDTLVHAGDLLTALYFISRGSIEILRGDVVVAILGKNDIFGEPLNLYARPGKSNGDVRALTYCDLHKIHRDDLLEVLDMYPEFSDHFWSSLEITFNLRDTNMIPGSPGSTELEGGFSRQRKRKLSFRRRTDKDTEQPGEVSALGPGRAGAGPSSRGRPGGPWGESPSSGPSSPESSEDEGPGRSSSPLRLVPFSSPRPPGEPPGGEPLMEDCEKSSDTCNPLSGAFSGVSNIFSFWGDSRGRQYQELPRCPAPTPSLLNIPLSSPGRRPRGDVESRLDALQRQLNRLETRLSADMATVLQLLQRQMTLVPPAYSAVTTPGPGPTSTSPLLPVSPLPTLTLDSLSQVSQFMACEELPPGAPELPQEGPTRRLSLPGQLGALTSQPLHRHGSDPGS
row,SMILES,"hERG current change (%, negative = inhibition) at 10uM [%]"
1,O=C(Nc1cc2cc([N+](=O)[O-])ccc2oc1=O)c1cccs1,14.1
2,O=S(=O)(c1ccc(Cl)cc1)N1CCCCCC1,-14.8
3,O=C(N/N=C/c1cccnc1)c1cccc(Cl)c1,0.742
4,O=C(COC(=O)/C=C/c1ccc2c(c1)OCO2)NCc1ccccc1,5.01
5,Cc1cccc(CC(=O)NCCN2CCCCC2)c1,4.07
6,CCOc1ccc(S(=O)(=O)Nc2cc(Sc3ncn[nH]3)c3oc(=O)sc3c2)cc1,3.08
7,CN1CCc2c(sc(/N=C/c3cc(Cl)ccc3O)c2C#N)C1,3.09
8,Cc1cc(C)c2cc(C(=O)N3CCC(C(=O)c4ccc(F)cc4)CC3)[nH]c2c1,2.63
9,Cc1ccc(C(=O)CCC(=O)NCc2ccccc2)cc1,18.4
10,CN(Cc1nc(-c2ccncc2)no1)S(=O)(=O)c1ccccc1,3.91
11,Cc1nn(-c2ccccc2)c(C)c1C(=O)OCC(=O)Nc1ccccc1C(F)(F)F,-2.17
12,COc1cccc(CNC(=O)CCC2CCCN(C(=O)Cc3ccccc3F)C2)c1 (stereo not shown),-7.61
13,CCCCOc1ccc(C(=O)N=c2sccn2C)cc1OC,12.2
14,COc1ccc(C2/C(=C(/O)c3ccc(Br)cc3)C(=O)C(=O)N2C)cc1 (stereo not shown),-12.7
15,COc1ccc(CCN(C)CC(=O)Nc2ccc(F)c(Cl)c2)cc1OC,-35.3
16,CC(C)C(O)P(=O)(OCc1ccccc1)c1ccc(N(C)C)cc1 (stereo not shown),-5.55
17,COc1cc(C(=O)Oc2ccc(Br)cc2C(=S)N2CCOCC2)cc(OC)c1OC,-0.563
18,COc1cc(C2C(C(N)=O)=C(C)Nc3nc(CCCO)nn32)cc(OC)c1OC (stereo not shown),3.75
19,CCN1CCN(c2ccc(NC(=O)C(C)C)cc2Cl)CC1,-20
20,CCn1ccnc1C(O)c1ccccc1OC (stereo not shown),1.47

row,SMILES,"hERG current change (%, negative = inhibition) at 10uM [%]"
1,CCN(CC(=O)Nc1cccc(OC)c1)C(=O)c1cccc(S(=O)(=O)N2CCc3ccccc32)c1,-1.63
2,CC(C)N1C(=O)S/C(=C/c2ccc3c(c2)n(C)c(=O)n3C)C1=O,-2.26
3,CC(Cc1ccccc1)N/C=C1\CC(=O)NC1=O (stereo not shown),-1.56
4,Cc1ccc(N(CC(=O)NC2CC2)S(=O)(=O)c2ccccc2)c(C)c1,3.86
5,CCCCC(=O)O[C@]1(C(=O)CO)CC[C@H]2[C@@H]3CCC4=CC(=O)CC[C@]4(C)[C@H]3[C@@H](O)C[C@@]21C,-8.61
6,O=C(NCCOc1ccc(Cl)cc1)c1ccc2c(c1)OCCO2,-7.8
7,C/C(=N\NC(=S)NCCc1ccccc1)c1ccc(C#N)cc1,-10.3
8,O=C(Cn1cc(C(=O)c2ccccc2F)c2ccccc21)NC1CC1,-4.44
9,CN(CC(=O)Nc1ccccc1Br)C(=O)c1ccncc1,24.3
10,CC(C)[C@H](N)C(=O)OCCOCn1cnc2c(=O)[nH]c(N)nc21,16.6
11,Cc1nn(Cc2ccc(Cl)c(Cl)c2)c(C)c1NC(=O)c1cc(CC(C)C)on1,-6.99
12,COc1ccc(Oc2cn[nH]c2-c2ccc(OCC(=O)NN)cc2O)cc1,6.68
13,COC(=O)C1=CN(Cc2cccs2)C=C(C(=O)OC)C1c1cccc(O)c1,-30.9
14,CCCN1C(=O)/C(=C2\SC(N3CCCCC3)=NC2=O)c2ccccc21,0.422
15,C=CCN1C(=O)NC(=O)C(Cc2ccc(OC)c(OC)c2)C1=O (stereo not shown),18
16,CCSc1nnc(NC(=O)c2cc(C)oc2C)s1,17.7
17,Cc1cc(F)ccc1S(=O)(=O)N1CCCOC1CNC(=O)C(=O)NCc1ccco1 (stereo not shown),2.99
18,OCCNc1nc2ccc(Cl)cc2[nH]1,-4.36
19,O=C(CN1C(=O)NC(Cc2ccccc2)C1=O)Nc1ccc(F)cc1 (stereo not shown),-7.41
20,O=C(CCSc1nc(-c2ccco2)cc(C(F)(F)F)n1)NCC1CCCO1 (stereo not shown),-8.69

row,SMILES,"hERG current change (%, negative = inhibition) at 10uM [%]"
1,COc1ccc(CCNC(=O)CO/N=C/c2cc3c(cc2Br)OCO3)cc1OC,-4
2,COc1ccc(C(C)=O)cc1COC(=O)Cc1cc(OC)c(OC)c(OC)c1,-9.26
3,Nc1nn(S(=O)(=O)c2ccccc2)cc1-c1ccc([N+](=O)[O-])cc1,-9.96
4,Cc1cccc(-n2c(O)c(C=NCc3cccnc3)c(=O)[nH]c2=O)c1C,11.4
5,COc1ccc(C(C)=O)cc1CC(C(=O)c1ccc(F)cc1)N(C)C (stereo not shown),-6.6
6,O=C(CSc1ncn(-c2ccccc2)n1)c1cccs1,-3.5
7,CC1CCCCC1NC(=O)COC(=O)c1ccc2ccccc2n1 (stereo not shown),3.44
8,COc1ccc(CNC(=O)c2nccnc2CO)cc1,12.1
9,COc1ccc(CNC(=O)N2CCc3ccccc3C2)cc1,-2.51
10,CC(=O)NCCc1nc2cc(NC(=O)c3ccc(F)cc3)ccc2n1C,9.6
11,COc1ccc(-n2nc(C(=O)NCC3CCCO3)c3ccccc3c2=O)cc1 (stereo not shown),31.7
12,N#Cc1nc(-c2ccco2)oc1N1CCOCC1,4.48
13,Cc1ccc(C)c(C(=O)CSc2nc(N)cc(=O)[nH]2)c1,-23.2
14,CC1(C)Cc2[nH]c(=S)c(C#N)cc2CO1,17.8
15,Cc1n[nH]c(=O)nc1Nc1ccc(O)cc1,1.47
16,O=C(COC(=O)c1cc([N+](=O)[O-])ccc1NCCO)c1ccc(Cl)cc1,8.76
17,Cc1c(NC(=O)c2cc(-c3cccc(Cl)c3)on2)c(=O)n(-c2ccccc2)n1C,-36.4
18,CCn1c(CNC(=O)c2cccc(C)c2)nnc1SCC(=O)NC1=NCCS1,22
